For assay [1], the target named is T1, Wild-type GPIbα, residues 1-290 of the mature protein, with biotinylated Avi-tag and His6 tag (biotin on the Avi-tag).
T1 chain: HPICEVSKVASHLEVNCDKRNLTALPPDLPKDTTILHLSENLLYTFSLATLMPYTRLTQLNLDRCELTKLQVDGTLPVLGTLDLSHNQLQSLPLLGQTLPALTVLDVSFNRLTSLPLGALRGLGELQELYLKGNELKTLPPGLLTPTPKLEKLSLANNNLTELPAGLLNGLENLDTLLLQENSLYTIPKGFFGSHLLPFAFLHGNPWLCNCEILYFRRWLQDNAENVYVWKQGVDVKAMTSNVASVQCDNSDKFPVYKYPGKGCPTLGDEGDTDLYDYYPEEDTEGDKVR
The assay is described as follows: BLI; biotinylated GPIbα on streptavidin sensors, A1 constructs as analyte; 20 mM HEPES pH 7.5, 0.02% Tween-20, 150 mM NaCl; global fit to a single kon and koff; Octet RED384. The following applies: both partners purified. In general terms: Biolayer interferometry detects binding as a change in optical thickness at a sensor tip.

In assay [2] the target is T1, Wild-type GPIbα, residues 1-290 of the …. The assay is described as follows: BLI; biotinylated GPIbα on streptavidin sensors, A1 constructs as analyte; 20 mM HEPES pH 7.5, 0.02% Tween-20, 10 mM NaCl; global fit to a single kon and koff. The following applies: both partners purified.

B1: VWF A1 domain construct A1+N+C ([…], not glycosylated) (domain or fragment)
chain: not shown
notes: source: E. coli SHuffle, purified (Ni-NTA, TEV cleavage, heparin, Superdex 200); not shown: thioredoxin, N-terminal, cleaved
For B1, the “fold lower affinity than A1 short” value in assay [1] stood at 10 fold.

B2: VWF A1 domain construct A1+C ([…], not glycosylated) (domain or fragment)
chain: not shown
notes: von Willebrand factor, human, A1 domain with the C-linker, […], pre-pro-VWF numbering; The limits for each name come from the start and end residues in the methods; source: E. coli SHuffle, purified (Ni-NTA, TEV cleavage, heparin, Superdex 200); not shown: thioredoxin, N-terminal, cleaved
Take B2: in assay [1], the “fold lower affinity than A1 short” value amounted to 2.5 fold.

B3: VWF A1 domain construct A1+OGly+C ([…], O-glycosylated) (domain or fragment)
chain: not shown
modifications: O-glycosylated C-linker
notes: von Willebrand factor, human, A1 domain with the C-linker, […], pre-pro-VWF numbering; also called A1+OGlyc+C; A1C
With B3, in assay [1], the “fold difference in koff, A1+OGly+C against A1+N (direction not told)” value came out at 10 fold and the “fold lower affinity than A1+C” value turned out to be 2 fold.

B4: VWF A1 domain construct A1 short ([…]) (domain or fragment)
chain: not shown
notes: von Willebrand factor, human, A1 domain without the N- and C-linkers, […], pre-pro-VWF numbering; Both the mammalian and the bacterial methods allow a […] construct; If it was made in E. coli, it carried an N-terminal thioredoxin that was cut off with TEV protease; Long-range disulfide […] is present; source: purified (Ni-NTA, Superdex 200), gel filtered again on the day of measurement
As for B4, the “fold difference in kon, A1 short against A1+OGly+N+C” value in assay [1] is 80 fold.

B5: VWF A1 domain construct A1+OGly+N+C ([…], O-glycosylated) (domain or fragment)
chain: not shown
modifications: O-glycosylated N- and C-linkers
notes: von Willebrand factor, human, A1 domain with the N- and C-linkers, […], pre-pro-VWF numbering; It extends three residues beyond the bacterial A1+N+C so as to include the O-glycosylated residues Ser-1486 and Thr-1487; also called A1NC
Regarding B5, in assay [2], the “fold increase in affinity, 10 mM against 150 mM NaCl” value turned out to be 20 fold and the “fold increase in kon, 10 mM against 150 mM NaCl” value stood at 7 fold.

B6: VWF A1 domain construct A1+OGly+N ([…], O-glycosylated) (domain or fragment)
chain: not shown
modifications: O-glycosylated N-linker
notes: von Willebrand factor, human, A1 domain with the N-linker, […], pre-pro-VWF numbering; The sites were not determined on this construct; also called A1N
B6: in assay [1], the “fold lower affinity than A1+N” value is 10 fold.

B7: VWF A1 domain construct A1+N ([…], not glycosylated) (domain or fragment)
chain: not shown
notes: von Willebrand factor, human, A1 domain with the N-linker, […], pre-pro-VWF numbering; The limits for each name come from the start and end residues in the methods and from the N-linker being defined as […]; source: E. coli SHuffle, purified (Ni-NTA, TEV cleavage, heparin, Superdex 200); not shown: thioredoxin, N-terminal, cleaved
Regarding B7, in assay [1], the “fold lower affinity than A1 short” value is 4.3 fold.

For the origin of these results see publication PMC9084892, “Von Willebrand factor A1 domain stability and affinity for GPIbα are differentially regulated by its O-glycosylated N- and C-linker” (eLife, 2022).
